Sequences and labels used below:
B1: LINE1-mini (parent)
chain: GGCAGAGCUCAACACAGCGUGGCAAAGUGGCUGUGGCUAGACUGCC
B2: LINE1-full (parent)
chain: UACGUAGGUGGUUUUCCCCUGAUAGUGCUAAGGGGGCCUGGAAGUUUGGACUGGGCAGAGCUCAACACAGCGUGGCAAAGUGGCUGUGGCUAGACUGCCUCUCUGGAUUCCUCGUCACUCAGCAGGGCAUCUCUGAGAGAAAUGCC

Among the data in the RNAGym collection of RNA variant scans (doi:10.7554/elife.90254) are self-cleavage values, retold here.

Read counts are not given, so values of variants with three or more changes are uncertain.

Variants of B1 are the subject of the first data set. The experiment in a line: self-cleavage, relative activity (ratio to wild type); higher = more cleavage; in vitro, sequencing; the parent is a self-cleaving ribozyme.
Consider GGCAGAGCUCAUAACAGCGAGGCAAAGUGGAUAUGGCUAGACUGCC [A12U C13A U20A C31A G33A], for which the self-cleavage came to 0.01.

Turning to GGCAGAGCUCAACACAGAGUGGCAGAGUGGCUCUGGCUAGACUUCC [C18A A25G G33C G44U], the self-cleavage was determined as 0.02. For GGCAGAGCUCAACACAGCGCGGAAAAGUAGCUGUGGCUAGACUGCC [U20C C23A G29A], the self-cleavage came to 0.33.

In the case of GGCAGAGCUCAACACAGCGUGGCAAAGAGUCUGGGGCUAGACUGCC [U28A G30U U34G], the self-cleavage came out at 0.18. Same read-out and setting: the figure for UGAAGAGUUCAACUCAGCGUGGGAAAGUCACUGUGGCUAGACUGCC [G1U C3A C8U A14U C23G G29C G30A] is 0.05; for GGCAGAGCUCAACACAGCGUGGAAAAGGGGCUGUGGGUAGACUUCC [C23A U28G C37G G44U] it is 0.04.

On to GGCAGAGGUCAACACAGCGUGGCAAACUGAAUGUGGCUAGACUGCC [C8G G27C G30A C31A], for which the self-cleavage was 0.04. Same read-out and setting: the figure for GGCAGAGCUCAACACAGCGUGGCAAAGUGGCACUGGCUAGACUUCC [U32A G33C G44U] is 0.05; for GGCGGAGCUCAACACACCGUGGCAAAGUGGCUGUGACCAGACUGCC [A4G G17C G36A U38C] it is 0.01; for GGCAGAGCUCAACACAGCGCGGCAAAGUGGCUGUGGUUAGACUGCA [U20C C37U C46A] it is 0.64.

Turning to GGCAGAGCUCAACACAGCCUGCCAAAGUGGCUGUGGCUAGACUGCU [G19C G22C C46U], the self-cleavage came to 0.34.

With GGCAGAGCUCAACACAGCGUGGCUAAGUGGCUGUAGGUAGACUGAC [A24U G35A C37G C45A], the self-cleavage came out at 0.04. In the case of UGCAGAGUUCAAUAGAGCGUGGCAAAGUGGCUGUGGCUAAACGGCC [G1U C8U C13U C15G G40A U43G], the self-cleavage was determined as 0.23. On the same count and under the same terms, the figure for GGCAGAGGUCAACACAGCUUGGCAAAGUAGAUGUGGCUAGACUGCC [C8G G19U G29A C31A] is 0.07; for GGCUGAGCUCAACAUAGCGUGGCAAAGUGGCCGUGGCUAGACUGCC [A4U C15U U32C] it is 0.1; for GGCCGAGCUCAAGGCAGCGUGGCAAAAUGGCUGUGGCUAGACUGCC [A4C C13G A14G G27A] it is 0.16. Still for that read-out and setting: the figure for GGCAGUGCUCAACACAUCGUGGCCAAGUGGCUGUGCCUAGACUGCC [A6U G17U A24C G36C] is 0.08.

Take UAAAGAGCUCAACACAGCGUGGCAAAGUGGCUGUGGCUAGACUGCC [G1U G2A C3A]: the self-cleavage worked out at 1.08. On the same count and under the same terms, the result for GGCAGAACUCAACACAGCGUCACAAAGUGGCUGUGGAUAGACUGCC [G7A G21C G22A C37A] reads 0.07; that for GGCGGAGCUCAACACAGGGUGGCCAAGUGGCUGUGGCUAGACUGCC [A4G C18G A24C], 0.12.

A further data set covers variants of B2. The data set is described as above.
For UACGUAGGUGGUCUUCCCCUGAUAGUGCUAAGAGGGCCUGGAAGUUUGGACUGGGCAGAGCUCAACACAGCGUGGCAAAGAGGCUGUGGCUAGACUGCCUCUCUGGAUUCCUCGUCACUCAGCAGGGCAUCUCUGAGAGAAAUGCC [U13C G33A U81A], the self-cleavage was found to be 1.4. The same measure, in the same setting: the result for UACGUAGGUGGUUUUCCCCUGAUAGUGCUAAGGGGGCCUGGAAGUUUGGACUGGGCAGAGCUCAACACAGCGUGGCAAAGUGGCUGUGGCCAGACUGCCUCUCUGGAUUCCUCGUCACUCAGCAGGGCAUCUCCGAGAGAAGUGCC [U91C U134C A142G] reads 0.66; that for UACGUAGGUGGCUUCCCCCUGAUAGUGCUAAGGGGGCCUGGAAGUUUGGACUGGGCAGAGCUCAACACAGCGUGGCAAAGUGGCUGUGGCUAGACUGCCUCUCUGGAUUCCUCGUCACUCAGCGGGGCAUCUCUGAGAGAAAUGCC [U12C U15C A124G], 0.84. On the same count and under the same terms, the result for UACGUAGGUGGUUUCCCCCUGAUAGUGCUAAGGGGGCCUGGAAGUUUGGACUGGGCAGAGCUCAACACAGCGUGGCAAAGCGGCUGUGGCCAGACUGCCUCUCUGGAUUCCUCGUCACUCAGCAGGGCAUCUCUGAGAGAAAUGCC [U15C U81C U91C] reads 0.54; that for UACGUAGGUGGUUUUCCCCUGAUAGUGCUAUGGGGGCCUUGAAGUUUGGACUGGGCAGAGCCCAACCCAGCGUGGCAAAGUGGCUGUGGCUAGACUGCCUCUCUGGAUUCCUCGUCACACAGCAGGGCAUCUCUGAAGGAAAUGCC [A31U G40U U62C A67C U119A G137A A138G], 0; that for UACGUAGGUGGUUUUCCCCUGAUAGUGCUAAGGGGGCCUGGGAGUUUGGACUGGGCGGAGCACAACACAGCGUGGCAAAGUGGCUGUGGCUAGACUGCCUCUCUGGAUUCCUCGUCACUCAGCAGGGCAUCUCUGAGAGAAAUGCC [A42G A57G U62A], 0.05.
